Reference: the antibiotic and cytotoxicity screens of Wong et al. (2023)
Some of the results follow.

What was measured:
S. aureus RN4220 = test: growth inhibition call (relative growth <= 0.2); conditions: 50 µM
HSkMC = human skeletal muscle cells; test: cytotoxicity call (relative viability < 0.9); conditions: 10 µM
HepG2 = test: cytotoxicity call (relative viability < 0.9); conditions: 10 µM

| Structure (SMILES) | growth inhibition call (S. aureus RN4220) | cytotoxicity call (HSkMC) | cytotoxicity call (HepG2) |
| --- | --- | --- | --- |
| C=C1C2CCC3(C)C(c4ccoc4)OC(=O)CC13OC1CC(O)C(C)(C)C(CC(=O)OC)C12C (stereo not drawn) [3alpha-HYDROXY-3-DEOXYANGOLENSIC ACID METHYL ESTER] | inactive |  |  |
| CC(=O)OC1CCC2(C)C(CC(OC(C)=O)C3(C)C4=CC(=O)OC(c5ccoc5)C4(C)CCC23)C1(C)C (stereo not drawn) [3alpha-ACETOXYDIHYDRODEOXYGEDUNIN ] |  | inactive | inactive |
| CC1(C)CCC2(C)CCC3(C)C(=CCC4C5(C)CCC(OC(=O)c6ccccc6)C(C)(C)C5CCC43C)C2C1 (stereo not drawn) [beta-AMYRIN BENZOATE] | inactive |  |  |
| CC1=Nc2ccccc2NC(C)(C)C1 | inactive | inactive | inactive |
| CC1(C)CCC2(C)CCC3(C)C(=CCC4C5(C)CCC(OC(=O)c6ccccc6)C(C)(C)C5CCC43C)C2C1 (stereo not drawn) [beta-AMYRIN BENZOATE ] |  | inactive | inactive |
| C[C@H](CCC(=O)O)[C@H]1CC[C@H]2[C@@H]3CC=C4C[C@@H](O)CC[C@]4(C)[C@H]3CC[C@]12C [3beta-HYDROXYCHOL-5-ENIC ACID ] |  | inactive | inactive |
| CC(=O)OC1CCC2(C)C(CC(OC(C)=O)C3(C)C4=CC(=O)OC(c5ccoc5)C4(C)CCC23)C1(C)C (stereo not drawn) [3alpha-ACETOXYDIHYDRODEOXYGEDUNIN] | inactive |  |  |
| COc1c(O)cc2oc3cc(O)c(CC=C(C)C)c(O)c3c(=O)c2c1CC=C(C)C [alpha-MANGOSTIN ] |  | active | active |
| C[C@@H]1CN([C@@H](C)CO)C(=O)c2cc(C#Cc3cccnc3)cnc2O[C@H]1CN(C)Cc1ccc(F)cc1 | inactive | inactive | inactive |
| NC(Cc1cc(I)c(Oc2ccc(O)c(I)c2)c(I)c1)C(=O)[O-].[Na+] [LIOTHYRONINE (L- isomer) SODIUM] | inactive |  |  |
| C[C@H]1CCCCO[C@H](CN(C)S(=O)(=O)c2ccc(Cl)cc2)[C@@H](C)CN([C@@H](C)CO)C(=O)c2cc(NC(=O)Nc3ccc(C(F)(F)F)cc3)ccc2O1 | inactive | inactive | inactive |
| C[C@H]1OC(=O)c2c(O)ccc(O)c2[C@H]1O | inactive | inactive | inactive |
